Reference: the RNAGym collection of RNA variant scans (doi:10.1101/gad.245936.114)
Variants at the background level are over-represented here.

B1: tRNA (parent)
chain: CUCUCGGUAGCCAAGUUGGUUUAAGGCGCAAGACUUUAAUUUAUCACUACGAAAUCUUGAGAUCGGGCGUUCGACUCGCCCCCGGGAGAUUUUUUCCUCGAGCAA

Variants of: B1
Assay: nonsense suppression (GFP-seq) (ratio to wild type); higher = more function; SUP4oc tRNA, yeast GFP reporter sort-seq
Method in brief: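 Yeast were grown in raffinose/galactose medium with 80 mg/L adenine, each strain bearing a genome-integrated ochre-suppressor tRNA variant from a ~3% random-mutation library, a galactose-driven GFP ochre reporter, and RFP. After sorting into GFP/RFP bins, every bin was sequenced on an Illumina platform at phred ≥30. The GFPSEQ value, a measure of nonsense suppression, is the weighted bin median GFP/RFP relative to the unmutated parent tRNA, using each variant's estimated cell share per bin as the weight. Only variants with ≥100 reads and ≥30 cells were included.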

U22C G67A C81G and U21C G28U cannot be ordered by nonsense suppression: ≤ 0.026 for the first, ≤ 0.026 for the second.

U21A A54G A60C G66A and U22C C68A U70A cannot be ordered by nonsense suppression: ≤ 0.026 for the first, ≤ 0.026 for the second.

Going from U21A U57C to U21A A24C, the nonsense suppression rises from ≤ 0.026 to 0.753.

A23C C27A and U21C A30U G88U cannot be ordered by nonsense suppression: ≤ 0.026 for the first, ≤ 0.026 for the second.

U21C G28U U57C and U22A G66C cannot be ordered by nonsense suppression: ≤ 0.026 for the first, ≤ 0.026 for the second.

U22G C27G C29U A33C U76G and U21A C34G C82U A89U cannot be ordered by nonsense suppression: ≤ 0.026 for the first, ≤ 0.026 for the second.

U22G A24C G86C and A23C C34A U70C cannot be ordered by nonsense suppression: ≤ 0.026 for the first, ≤ 0.026 for the second.

A23C A31C G86A and A23C C75U G78U G88A cannot be ordered by nonsense suppression: ≤ 0.026 for the first, ≤ 0.026 for the second.

U21C G25C U70C G84U and U21C G25U cannot be ordered by nonsense suppression: ≤ 0.026 for the first, ≤ 0.026 for the second.

U21G G69C U71G U76G and A23C C56A C64U cannot be ordered by nonsense suppression: ≤ 0.026 for the first, ≤ 0.026 for the second.

U22A C56G G69C A74G and A23C C29A G32C A33G G61C cannot be ordered by nonsense suppression: ≤ 0.026 for the first, ≤ 0.026 for the second.

U22A A23G U57C U71G C82U G85C and A23C A31U cannot be ordered by nonsense suppression: ≤ 0.026 for the first, ≤ 0.026 for the second.

Compared with A23C A31C, U21G G61A is higher in nonsense suppression: ≤ 0.026 for the first, 0.237 for the second.

First: U21G G61U
Second: U21G U22G A54G C80A
The nonsense suppression of the first is higher: 0.554 for the first, ≤ 0.026 for the second.

U21G A33C U76C and U21G C56U cannot be ordered by nonsense suppression: ≤ 0.026 for the first, ≤ 0.026 for the second.

U21G U70C and U21G C29U C34A U58G G61U C80U cannot be ordered by nonsense suppression: ≤ 0.026 for the first, ≤ 0.026 for the second.

A23C G59C G67C and U22A G28U cannot be ordered by nonsense suppression: ≤ 0.026 for the first, ≤ 0.026 for the second.

First: U21A U35G
Second: U21A U76C
The nonsense suppression of the first is lower: ≤ 0.026 for the first, 1.18 for the second.

U22G U35G U55C A74G and U22A U70G G84A cannot be ordered by nonsense suppression: ≤ 0.026 for the first, ≤ 0.026 for the second.

First: A23C G32A G85A
Second: U22G C75A
The nonsense suppression of the first is lower: ≤ 0.026 for the first, 0.927 for the second.

First: U22C G67U G69U U70G C79A
Second: U22C U63C
The nonsense suppression of the first is lower: ≤ 0.026 for the first, 1.2 for the second.

U21A G88A and U22A A87U cannot be ordered by nonsense suppression: ≤ 0.026 for the first, ≤ 0.026 for the second.

Compared with U22A A87G, U21C A23U C82A is lower in nonsense suppression: 0.501 for the first, ≤ 0.026 for the second.

U21C A31G U76C G85A G88C and U21G U22G G25A A62U C79U A89G cannot be ordered by nonsense suppression: ≤ 0.026 for the first, ≤ 0.026 for the second.

A23C A89C and A23C C29U cannot be ordered by nonsense suppression: ≤ 0.026 for the first, ≤ 0.026 for the second.

U22G C34U U35A and U21A U57A U58C cannot be ordered by nonsense suppression: ≤ 0.026 for the first, ≤ 0.026 for the second.

U22C A24C G73U and U21C A60C C80G cannot be ordered by nonsense suppression: ≤ 0.026 for the first, ≤ 0.026 for the second.

A23C G32C C34G G59U and U22A A31C U55G G59C G65C G86A cannot be ordered by nonsense suppression: ≤ 0.026 for the first, ≤ 0.026 for the second.

U21G U58G and U22C A54U A74G C79U cannot be ordered by nonsense suppression: ≤ 0.026 for the first, ≤ 0.026 for the second.

U21G G61C C72G and U22C U35C U70A cannot be ordered by nonsense suppression: ≤ 0.026 for the first, ≤ 0.026 for the second.

U22A U35G and U21C A23C U71G G78A cannot be ordered by nonsense suppression: ≤ 0.026 for the first, ≤ 0.026 for the second.

U21G A23U A30C C77A G78U C83U and U21G U22C A24U C27A C34G A74C cannot be ordered by nonsense suppression: ≤ 0.026 for the first, ≤ 0.026 for the second.

U22C A31U U70C and U21A C34G G61A G84U cannot be ordered by nonsense suppression: ≤ 0.026 for the first, ≤ 0.026 for the second.

Going from U21A U70C C79G to U22G A31U, the nonsense suppression rises from ≤ 0.026 to 0.0872.

U21A G26U A31C G32U and U21A U22G A24U C29U U76A cannot be ordered by nonsense suppression: ≤ 0.026 for the first, ≤ 0.026 for the second.

U22C U57G and U21G G73C cannot be ordered by nonsense suppression: ≤ 0.026 for the first, ≤ 0.026 for the second.

U22A A24C G65C and U21C A74G G86C cannot be ordered by nonsense suppression: ≤ 0.026 for the first, ≤ 0.026 for the second.

U21C A30G C72A and U22C G67U U76A C82G G88C cannot be ordered by nonsense suppression: ≤ 0.026 for the first, ≤ 0.026 for the second.

Going from U21A A31G to U22A U76A, the nonsense suppression falls from 1.16 to 0.0747.

U22G G32U C72G and U22C G28U cannot be ordered by nonsense suppression: ≤ 0.026 for the first, ≤ 0.026 for the second.

U22C C29A and U21C G25U C27U C64A G88C cannot be ordered by nonsense suppression: ≤ 0.026 for the first, ≤ 0.026 for the second.

Going from U21C C64G C75A to U22G U63A, the nonsense suppression rises from ≤ 0.026 to 0.939.

U21A G25A and U21G A23U A31G G69C G78C cannot be ordered by nonsense suppression: ≤ 0.026 for the first, ≤ 0.026 for the second.

U21C A30G A31G U63C and U21A A24G C68U A89U cannot be ordered by nonsense suppression: ≤ 0.026 for the first, ≤ 0.026 for the second.

First: U21G U63G
Second: U21G U63A
The nonsense suppression of the first is lower: 0.0367 for the first, 0.636 for the second.

Going from U21A G67C to U22C G73A C80U, the nonsense suppression rises from ≤ 0.026 to 0.0265.

U21A G61C U63C G66C G85C and U22C A24U C34A G66U cannot be ordered by nonsense suppression: ≤ 0.026 for the first, ≤ 0.026 for the second.

Going from U21C U70C U76C C77U to U22A G78A, the nonsense suppression rises from ≤ 0.026 to 0.283.

U22C A23C and U21G A30C A31G G32C A89G cannot be ordered by nonsense suppression: ≤ 0.026 for the first, ≤ 0.026 for the second.

U21G A30C A31G G32C A89U and A23C G61A C64U A87G cannot be ordered by nonsense suppression: ≤ 0.026 for the first, ≤ 0.026 for the second.

U21G C29G and U21A C34A U71G cannot be ordered by nonsense suppression: ≤ 0.026 for the first, ≤ 0.026 for the second.

A23C C29U G73C and U22G G25U G66U cannot be ordered by nonsense suppression: ≤ 0.026 for the first, ≤ 0.026 for the second.

U22C G32C G67A and U21A U55G U58A A60G cannot be ordered by nonsense suppression: ≤ 0.026 for the first, ≤ 0.026 for the second.

U22A G32C and U21C G32U U58C cannot be ordered by nonsense suppression: ≤ 0.026 for the first, ≤ 0.026 for the second.

U22A C80A and A23C A54U G88C cannot be ordered by nonsense suppression: ≤ 0.026 for the first, ≤ 0.026 for the second.

A23C G28C and A23C A60G cannot be ordered by nonsense suppression: ≤ 0.026 for the first, ≤ 0.026 for the second.

U22G G26A G32U A54G G84C and U21G G59U A62C C82U cannot be ordered by nonsense suppression: ≤ 0.026 for the first, ≤ 0.026 for the second.

U22C A54G and U22C U70A cannot be ordered by nonsense suppression: ≤ 0.026 for the first, ≤ 0.026 for the second.

U21G C83A G84U and U21A G73U G86A cannot be ordered by nonsense suppression: ≤ 0.026 for the first, ≤ 0.026 for the second.

A23C C83U and U22A G73U C80G cannot be ordered by nonsense suppression: ≤ 0.026 for the first, ≤ 0.026 for the second.

Going from U21G A30G to U21G A30U, the nonsense suppression falls from 0.227 to ≤ 0.026.

U21A U63G G86A and U21A A23U U71A A74G C82A cannot be ordered by nonsense suppression: ≤ 0.026 for the first, ≤ 0.026 for the second.

U21G U57G and U22A G32C G86C cannot be ordered by nonsense suppression: ≤ 0.026 for the first, ≤ 0.026 for the second.

U21G G25C A33G and U21C G69A cannot be ordered by nonsense suppression: ≤ 0.026 for the first, ≤ 0.026 for the second.

U22A A31U C81A and A23C A33U U63A cannot be ordered by nonsense suppression: ≤ 0.026 for the first, ≤ 0.026 for the second.

U21A G84A and U21A A33C G69U cannot be ordered by nonsense suppression: ≤ 0.026 for the first, ≤ 0.026 for the second.

U21G C77G and U22C A33C cannot be ordered by nonsense suppression: ≤ 0.026 for the first, ≤ 0.026 for the second.

U21G A33G U55C G59U and U22G G86U cannot be ordered by nonsense suppression: ≤ 0.026 for the first, ≤ 0.026 for the second.

U21A A54C U70G C77U C82U G88C and U21G U55C G61C G73A cannot be ordered by nonsense suppression: ≤ 0.026 for the first, ≤ 0.026 for the second.

U22C U55G G59A G69U and U22G C27U A33G C64A cannot be ordered by nonsense suppression: ≤ 0.026 for the first, ≤ 0.026 for the second.

First: U22A G86U
Second: U21G G69U
The nonsense suppression of the first is higher: 0.033 for the first, ≤ 0.026 for the second.

U21G G69A and U21A G65C cannot be ordered by nonsense suppression: ≤ 0.026 for the first, ≤ 0.026 for the second.

A23C G26U A62U U63C and A23C A60G U63C C81U G85A cannot be ordered by nonsense suppression: ≤ 0.026 for the first, ≤ 0.026 for the second.

U21A U22G U35G A54U A60U and U21C G28C A62C cannot be ordered by nonsense suppression: ≤ 0.026 for the first, ≤ 0.026 for the second.

U21A A33C and U21A A33U cannot be ordered by nonsense suppression: ≤ 0.026 for the first, ≤ 0.026 for the second.

U22A G65A C80G and A23C A24G C29G cannot be ordered by nonsense suppression: ≤ 0.026 for the first, ≤ 0.026 for the second.

U22G C27A and U21G C72G cannot be ordered by nonsense suppression: ≤ 0.026 for the first, ≤ 0.026 for the second.

Going from A23C G25C C64A U76C G78U to U22A G73A, the nonsense suppression rises from ≤ 0.026 to 0.325.

U22G G61U G66C and U21G U55A C56G G66A C81G cannot be ordered by nonsense suppression: ≤ 0.026 for the first, ≤ 0.026 for the second.

Compared with U21C A24U, U21C A24G is lower in nonsense suppression: 0.194 for the first, 0.0906 for the second.

U21C G84A and U21C G66C C82G C83G cannot be ordered by nonsense suppression: ≤ 0.026 for the first, ≤ 0.026 for the second.

U21G U22G G25A A62U C79G A89G and U22G U58A cannot be ordered by nonsense suppression: ≤ 0.026 for the first, ≤ 0.026 for the second.

U22G U57C A74U and U21G C83G G85A cannot be ordered by nonsense suppression: ≤ 0.026 for the first, ≤ 0.026 for the second.

For U22C C56U, the nonsense suppression was 0.0509.
